In the supplement of paper PMC10126150:
Sequences with one replicate were seen in a single cluster, so their values are uncertain.

System: ATP
Assay: switch fluorescence ratio, 500 uM ATP over buffer (Cy3 cluster intensity, sum of 5 cycles each) (fold (ratio)); higher = stronger signal-on switching upon ATP binding; sequences stand for … in TCGTCGGCAGCGTCAGATGTGTATAAGAGACAGTTTTTTTTTTTTTTTTTTTTTTTTT…TC
Conditions: aptamer strand: ATP DNA aptamer (quencher-CACCTGGGGGAGTATTGCGGAGGAAGG + anchor), 100 nM annealed; ATP concentration: 500 uM; one replicate
Outline: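 Cy3-labelled switching-strand clusters on a modified Illumina MiSeq flow-cell were annealed to 100 nM quencher-labelled ATP aptamer and imaged first in selection buffer, then after 15 min with 500 uM ATP at 22 °C. NaOH stripping and re-annealing separated each of five buffer/ATP cycles, and clusters outside 100-1000 RFU were excluded. The fluorescence ratio sums target-cycle Cy3 intensity over buffer-cycle Cy3 intensity per cluster and averages it per switch-domain sequence.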
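Further: ATP exposure 15 min at 22 °C before imaging.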

Sequence | switch fluorescence ratio
TGCACGCCCC | 1.93
GGATCCCAC | 1.05
CGTCTCCTGC | 1.04
TGAAGACAGT | 0.976
GCGCGAAGAA | 0.955
AGGCCTGATC | 1.09
CTAGCTGTCA | 1
CGAACATCTT | 0.99
GAGGTGAAAG | 1.02
CGGCATTGGT | 1.05
GGGAGTTGTT | 1.04
ATATCTGGGA | 0.974
CGTACTCGGC | 1.09
CTAGACTTCG | 1.05
CCGCTGGTTG | 1.08
GAAGAGAAC | 0.962
TGCCGAAAAA | 1.24
TTATCGTT | 1
CCTTTTAGAC | 1.14
ATTCGAATAG | 0.971
CTTCTTACCT | 1.13
TCTCATAGAG | 1.03
GGGTCCGGGG | 1.01

Sequence | switch fluorescence ratio
TGCATGCGAT | 1.02
TCTCTCACAG | 1.13
CACTACTTT | 1.03
GAAAGGGAGA | 1.02
AACGCAGATT | 1.13
AGGCGTTGG | 0.956
ACCAGGTAAC | 1.04
CAATATAAAA | 1.01
GCACGGTTGG | 1.01
TGCTACGAAC | 1.6
TTTGACCTCT | 1.02
AGCTCTCGCG | 0.992
GGGGGACGAG | 0.91
GATCCTCTCG | 1.08
TACATCTTTT | 0.993
GACGCCAATT | 2.45
TAGAGATTTA | 0.993
AACGCGAGTT | 1.01
TGCTTCCGAT | 2.01
TGGCCGGCAA | 1
CTGTAGGTCA | 1.03
TTTGCATTCG | 1.05
CACTGTGTAC | 1.26

Sequence | switch fluorescence ratio
GAGCGGTACG | 0.935
CCACGCTGAA | 1.46
TATTAGCTC | 0.948
TGTCACTTC | 1
TGCCCGACCG | 1.07
GCACCTGGTC | 1.09
GGCCCCGGAA | 1.47
TACAAACATT | 1.13
AGTTCGGGTG | 1.04
TTGCTTTTCC | 1.11
TGAGAAACGG | 1.01
GTAGTCACTA | 0.973
AATTGGTACT | 1.01
GTTGTGTG | 0.948
ACATGCGGT | 1.03
TGCCCTAGTA | 1.02
GTCCGTCATC | 1.07
CCTCGGAAGA | 1.81
GTTTGACAGC | 1.01
CTTAAGGCCA | 0.999
TAAAAGTGCA | 0.981
GTTCACGGGG | 1.02
AGTCTGGGCG | 0.993

Sequence | switch fluorescence ratio
ACCTTTTTT | 0.96
GTTCGGACAT | 0.999
AACCCAAGCA | 1.08
CGTGTGGCAA | 1.15
ATTCTTATTC | 0.994
ACCCGCTCCG | 1.34
GGATATCCGG | 0.979
TAGGCTATGC | 1.06
AGGTACTCGG | 0.972
CCCTCCTTTG | 1.04
CCAGACAGAT | 1.03
AGGGGACTCT | 1.02
TCAATTAGCA | 0.988
CGCCGAACGA | 1.03
TGAAGGGTGT | 0.967
GTTAAGAGAC | 1.02
CATTCGGGAA | 1.23
ACGTTGTAGG | 1.03
AGTAAGGGC | 1
AGAATTGGTT | 1.02
GTTGGGTGAA | 0.992
TCAGAGGCAG | 1.02
ACGTTGGCCT | 1.04

Sequence | switch fluorescence ratio
AGGTCAGAGC | 1.01
GTGCAGCAAC | 1.27
CGGGCGACCG | 1.01
GATGTCACGC | 1.05
ACCGAGATGC | 2.01
TTATACCCCT | 1.09
ATGTCAAGCT | 1.03
AACAGGGTAT | 0.991
TAGATTATTC | 0.987
TTTATTTCGT | 1.01
TAGGTCATCA | 1.01
CTAGGAGAGA | 0.982
ATGTCTCTCC | 1.04
ATATATTGTC | 1.03
TCATAACCCC | 1.08
CAGGCCTCTC | 1.01
TTACATCTTA | 1.01
TCTCGTGAAA | 1.02
CCAACCGCGA | 4.94
CCGATATAGG | 1.08
TTGACTTTCT | 1.04
AAAACTAGGT | 1.04
TGCTGGCTAG | 0.99

Sequence | switch fluorescence ratio
GGTGATACAC | 1.03
AAGCTAGACC | 1.11
TGACAAAAAA | 0.968
CAGACTTAAT | 1.06
CTGTATAGTA | 1.01
AGGCGGGATT | 1.04
AATTGTGGAT | 1.26
CAGACCAATG | 1.01
CAGGCAGGGC | 1.03
AGAGCCAAGG | 0.979
AAGCGGCCGA | 0.987
AAGATCCACA | 0.988
GTCCTTAGTT | 1.02
GGAAGACAGC | 0.977
ATGTATTAGT | 1.01
AACTAATAT | 0.981
CGCGCGTCTT | 1.02
TAGATGAATA | 1.03
CATATGGTCA | 1
ACTGGCGCTG | 1.03
GATCTCGGAC | 0.998
AGTAAGGTAC | 1.03
GCACAGAATG | 0.93

Sequence | switch fluorescence ratio
GTTAGGGATG | 0.965
TGTGCTACTC | 1.07
CAGTTAAATC | 0.93
AAGAGGTGA | 0.977
AAGTACACGG | 1.16
GGACCTAGCT | 1.03
TGGCGGGTT | 1.03
CCCCGTGCTC | 3.64
TAAACAGCC | 1.11
TCCGTAATCG | 1.76
GCGCATGAGT | 1.01
TCTTAGTAAT | 1.02
TGTGCCTCGG | 0.991
ACCCTGCTCA | 1.01
ACGGATTGAG | 0.973
CGTGTTACAA | 1.01
AGCCTCTTTC | 0.952
CGAAGAATGT | 1.02
GGAATATGAG | 1.08
